According to the supplement of paper PMC8728848:
This is one part of the list.

Tests used:
Assay in all cases: glycan array binding signal (z-score within array); higher = stronger binding
Details in all cases: glycan notation: IUPAC condensed, linker removed
[1] = target: Gal(b1-3)GlcNAc(b1-3)Gal(b1-4)GlcNAc(b1-2)[Gal(b1-3)GlcNAc(b1-3)Gal(b1-4)GlcNAc(b1-6)]Man(a1-6)[Gal(b1-3)GlcNAc(b1-3)Gal(b1-4)GlcNAc(b1-2)Man(a1-3)]Man(b1-4)GlcNAc(b1-4)[Fuc(a1-6)]GlcNAc
Summary of the method: (§1)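 Negative Z-scores can be read as non-binding. The Z-score is calculated within each array and then averaged across arrays of one protein sequence at different concentrations or buffers and across linkers. Arrays, 3228 in all, were curated from the Consortium for Functional Glycomics database and kept only where the protein sequence was available.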

[2] = target: Gal(b1-3)GlcNAc(b1-3)Gal(b1-4)GlcNAc(b1-3)Gal(b1-4)GlcNAc(b1-2)[Gal(b1-3)GlcNAc(b1-3)Gal(b1-4)GlcNAc(b1-3)Gal(b1-4)GlcNAc(b1-6)]Man(a1-6)[Gal(b1-3)GlcNAc(b1-3)Gal(b1-4)GlcNAc(b1-3)Gal(b1-4)GlcNAc(b1-2)Man(a1-3)]Man(b1-4)GlcNAc(b1-4)[Fuc(a1-6)]GlcNAc
Summary of the method: as §1

[3] = target: Gal(b1-3)GlcNAc(b1-3)Gal(b1-4)GlcNAc(b1-6)[Gal(b1-3)GlcNAc(b1-3)]Gal(b1-4)Glc
Summary of the method: as §1

[4] = target: Gal(b1-3)GlcNAc(b1-3)Gal(b1-4)[Fuc(a1-3)]GlcNAc
Summary of the method: as §1

[5] = target: Gal(b1-3)GlcNAc(b1-3)Gal(b1-4)[Fuc(a1-3)]GlcNAc(b1-6)[Gal(b1-3)GlcNAc(b1-3)]Gal(b1-4)Glc
Summary of the method: as §1

[6] = target: Gal(b1-3)GlcNAc(b1-3)GalNAc
Summary of the method: as §1

[7] = target: Gal(b1-3)GlcNAc(b1-6)Gal(b1-4)GlcNAc
Summary of the method: as §1

[8] = target: Gal(b1-3)GlcNAc(b1-6)GalNAc
Summary of the method: as §1

[9] = target: Gal(b1-3)GlcNAc(b1-6)[Gal(b1-3)]GalNAc
Summary of the method: as §1

[10] = target: Gal(b1-3)GlcNAc6S
Summary of the method: as §1

[11] = target: Gal(b1-3)[Fuc(a1-4)]GlcNAc
Summary of the method: as §1

[12] = target: Gal(b1-3)[Fuc(a1-4)]GlcNAc(b1-2)Man
Summary of the method: as §1

[13] = target: Gal(b1-3)[Fuc(a1-4)]GlcNAc(b1-2)Man(a1-3)[Gal(b1-3)[Fuc(a1-4)]GlcNAc(b1-2)Man(a1-6)]Man(b1-4)GlcNAc(b1-4)[Fuc(a1-6)]GlcNAc
Summary of the method: as §1

[14] = target: Gal(b1-3)[Fuc(a1-4)]GlcNAc(b1-3)Gal(b1-3)[Fuc(a1-4)]GlcNAc
Summary of the method: as §1

[15] = target: Gal(b1-3)[Fuc(a1-4)]GlcNAc(b1-3)Gal(b1-4)[Fuc(a1-3)]GlcNAc
Summary of the method: as §1

[16] = target: Gal(b1-3)[Fuc(a1-4)]GlcNAc(b1-6)GalNAc
Summary of the method: as §1

[17] = target: Gal(b1-3)[GlcNAc(b1-6)]GalNAc
Summary of the method: as §1

[18] = target: Gal(b1-3)[Neu5Ac(a2-6)]GalNAc
Summary of the method: as §1

[19] = target: Gal(b1-3)[Neu5Ac(a2-6)]GlcNAc(b1-4)Gal(b1-4)Glc
Summary of the method: as §1

[20] = target: Gal(b1-3)[Neu5Ac(b2-6)]GalNAc
Summary of the method: as §1

[21] = target: Gal(b1-4)Gal
Summary of the method: as §1

[22] = target: Gal(b1-4)GalNAc(a1-3)[Fuc(a1-2)]Gal(b1-4)GlcNAc
Summary of the method: as §1

[23] = target: Gal(b1-4)GalNAc(b1-3)[Fuc(a1-2)]Gal(b1-4)GlcNAc
Summary of the method: as §1

[24] = target: Gal(b1-4)Glc
Summary of the method: as §1

[25] = target: Gal(b1-4)Glc6S
Summary of the method: as §1

[26] = target: Gal(b1-4)GlcNAc
Summary of the method: as §1

[27] = target: Gal(b1-4)GlcNAc(a1-6)Gal(b1-4)GlcNAc
Summary of the method: as §1

[28] = target: Gal(b1-4)GlcNAc(b1-2)Man
Summary of the method: as §1

[29] = target: Gal(b1-4)GlcNAc(b1-2)Man(a1-3)Man(b1-4)GlcNAc(b1-4)GlcNAc
Summary of the method: as §1

[30] = target: Gal(b1-4)GlcNAc(b1-2)Man(a1-3)[Gal(b1-4)GlcNAc(b1-2)Man(a1-6)]Man(b1-4)GlcNAc(b1-4)GlcNAc
Summary of the method: as §1

[31] = target: Gal(b1-4)GlcNAc(b1-2)Man(a1-3)[Gal(b1-4)GlcNAc(b1-2)Man(a1-6)]Man(b1-4)GlcNAc(b1-4)[Fuc(a1-6)]GlcNAc
Summary of the method: as §1

[32] = target: Gal(b1-4)GlcNAc(b1-2)Man(a1-3)[Gal(b1-4)GlcNAc(b1-2)Man(a1-6)][Gal(b1-4)GlcNAc(b1-4)]Man(b1-4)GlcNAc(b1-4)[Fuc(a1-6)]GlcNAc
Summary of the method: as §1

[33] = target: Gal(b1-4)GlcNAc(b1-2)Man(a1-3)[Gal(b1-4)GlcNAc(b1-2)Man(a1-6)][GlcNAc(b1-4)]Man(b1-4)GlcNAc(b1-4)[Fuc(a1-6)]GlcNAc
Summary of the method: as §1

[34] = target: Gal(b1-4)GlcNAc(b1-2)Man(a1-3)[GlcNAc(b1-2)Man(a1-6)]Man(b1-4)GlcNAc(b1-4)GlcNAc
Summary of the method: as §1

[35] = target: Gal(b1-4)GlcNAc(b1-2)Man(a1-3)[GlcNAc(b1-4)][Gal(b1-4)GlcNAc(b1-2)Man(a1-6)]Man(b1-4)GlcNAc(b1-4)GlcNAc
Summary of the method: as §1

[36] = target: Gal(b1-4)GlcNAc(b1-2)Man(a1-3)[Man(a1-6)]Man(b1-4)GlcNAc(b1-4)GlcNAc
Summary of the method: as §1

[37] = target: Gal(b1-4)GlcNAc(b1-2)Man(a1-6)Man(b1-4)GlcNAc(b1-4)GlcNAc
Summary of the method: as §1

[38] = target: Gal(b1-4)GlcNAc(b1-2)Man(a1-6)[GlcNAc(b1-2)Man(a1-3)]Man(b1-4)GlcNAc(b1-4)GlcNAc
Summary of the method: as §1

B1: PX9961U-pdi-543-24-543 (Parabacteroides distasonis) (protein)
chain: EEPVGEFLPGQVESEENIEGIVTGAYAVLDGYYASDAINSGCSNWQFGDVVSDDAYKGGGGTGDQNQIHLMEIFNANPTGIDFEARWAALYEGIKRCNQAIRLLNGSEVKNKEQRLAEMRFLRGHYYFNLKIIYNQIPWIDETLVDPNEYNKKSNIEFSSDQLWEKILEEFSAAYKVLPESQADYGRPTKMAARAYMAKVYLYQSKWKECLEACDEVIQSGKYELFPDFRNVFLPENDNCSEIIFAIQLSINDGSPNNENGSYGDRLLPPGGPYPVYGFLRPTQNLVNAYKTDVKGLPYNDGKDVSENDYVDVRLDHTLARPNIPFMDVQLYDWTPREASVYGPYSPKKRLVSLNSTYYSPIWPYVNALNFYVIRYADLLLWRAEAAIETGDLETGRKYINMIRERAKNTQHVKTMDQSQDAANYKVGVYDEPFKSKNEAVQALRMERRLEMAHEGIRFFDLVRWGVADEVINAYIAKEKVFRSHLQNAHFVKGKHEYFPIPQSMIDICGTEVMKQNPGY
glycan array binding signal (z-score) [1]: 2.71
glycan array binding signal (z-score) [2]: 4.42
glycan array binding signal (z-score) [3]: 1.54
glycan array binding signal (z-score) [4]: -0.399
glycan array binding signal (z-score) [5]: -0.346
glycan array binding signal (z-score) [6]: -0.385
glycan array binding signal (z-score) [7]: -0.307
glycan array binding signal (z-score) [8]: 0.603
glycan array binding signal (z-score) [9]: 0.565
glycan array binding signal (z-score) [10]: -0.261
glycan array binding signal (z-score) [11]: -0.344
glycan array binding signal (z-score) [12]: -0.354
glycan array binding signal (z-score) [13]: 0.134
glycan array binding signal (z-score) [14]: -0.393
glycan array binding signal (z-score) [15]: -0.465
glycan array binding signal (z-score) [16]: 3.44
glycan array binding signal (z-score) [17]: -0.355
glycan array binding signal (z-score) [18]: -0.38
glycan array binding signal (z-score) [19]: -0.483
glycan array binding signal (z-score) [20]: -0.456
glycan array binding signal (z-score) [21]: 1.69
glycan array binding signal (z-score) [22]: -0.413
glycan array binding signal (z-score) [23]: -0.247
glycan array binding signal (z-score) [24]: -0.492
glycan array binding signal (z-score) [25]: -0.266
glycan array binding signal (z-score) [26]: -0.332
glycan array binding signal (z-score) [27]: -0.139
glycan array binding signal (z-score) [28]: -0.43
glycan array binding signal (z-score) [29]: -0.134
glycan array binding signal (z-score) [30]: -0.463
glycan array binding signal (z-score) [31]: -0.189
glycan array binding signal (z-score) [32]: -0.449
glycan array binding signal (z-score) [33]: -0.445
glycan array binding signal (z-score) [34]: -0.329
glycan array binding signal (z-score) [35]: -0.173
glycan array binding signal (z-score) [36]: 1
glycan array binding signal (z-score) [37]: 0.168
glycan array binding signal (z-score) [38]: -0.394
